Assay results reported in PubChem BioAssay AID493208 (National Center for Advancing Translational Sciences (NCATS), 2011).
The campaign covered roughly 44,000 compounds. About 340 (0.77%) were called active. Another 5% or so got no clear call; they are omitted. Calls come from the whole dose curve; as a rule, active = well fitted inhibition curve with a large enough effect; inconclusive = small, poorly fitted or top-dose-only effect; inactive = flat fitted curve, though single readings scatter. This is one part of the list.

Assay: Acumen qHTS Assay for Inhibitors of the mTORC1 Signaling Pathway in MEF (Tsc2-/-, p53-/-) Cells: Sytravon;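 note: plate controls were DMSO for no effect and rapamycin for full effect; nearly all actives have a fitted effect of over 50% in size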
Details: phospho-rpS6 immunofluorescence/PI, 24 h; series mostly up to 38.3 µM; activity change, negative = inhibition: at the top concentration
How it was run: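 Tsc2-/-, p53-/- MEFs (empty-vector stable line) in DMEM + 10% FBS were treated with compounds 24 h at 37 degree Celsius, fixed, and immunostained for phospho-rpS6 (Alexa-488) with propidium iodide counterstain. Laser-scanning cytometry gave % positive cells, normalized against 7.5 nM rapamycin and DMSO.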

Activity change, negative = inhibition, inactive:
Cc1cc(C)c(NC(=O)CSc2ccc(-c3sc(-c4ccccc4)nc3C)nn2)c(C)c1 0.955%
Cc1cc(C)c(NC(=O)CSc2nc3nc(C)cc(C)n3n2)c(C)c1 4.38%
CCN(CC)c1cc(C)c2cc(NC(=O)c3ccccc3OC)ccc2n1 -22.9%
CCCCn1c(SCC(=O)NCCCOC)nc2c(sc3ccccc32)c1=O -1.69%
CCn1c(=O)c2sccc2n2c(CCCC(=O)N3CCN(c4cc(Cl)ccc4C)CC3)nnc12 -1.55%
O=C(CSc1nc(-c2ccc(F)cc2)[nH]c1-c1ccccc1)NCC1CCCO1 (stereo not given) -12.4%
COc1ccc(-c2nnc(SCC(=O)NCc3ccc(C)cc3)nc2-c2ccc(OC)c(OC)c2)cc1OC -0.0959%
CCCCOc1cccc(C2c3c(oc4ccccc4c3=O)C(=O)N2c2ccccn2)c1 (stereo not given) -0.123%
CCS(=O)(=O)N1CCC(n2c(C(F)(F)F)nc3cccnc32)CC1 -0.202%
COc1ccccc1N1CCN(c2ncccc2-c2nc(-c3ccc(Cl)cc3)no2)CC1 -0.0356%
CCc1ccc(C(=O)c2cn(CC(=O)Nc3ccc(OC)c(OC)c3)c3ccc(C)cc3c2=O)cc1 -5.8%
O=c1c2c(-c3ccccc3)ccnc2[nH]n1-c1ccccc1 0.668%
COCCN1C(=O)c2[nH]nc(-c3ccccc3O)c2C1c1ccc(Cl)c(Cl)c1 (stereo not given) 0%
O=C(CCN1N=C(c2ccccc2)CCC1=O)NCCc1ccc(Cl)cc1 -1.06%
Cc1nn(C(=O)c2c(F)cccc2F)c(C)c1S(=O)(=O)N1CCOCC1 -4.7%
COc1ccc(CCNC(=O)c2ccc3c(c2)N(Cc2ccccc2F)C(=O)c2ccccc2S3(=O)=O)cc1OC 1.75%
Cc1ccc(CN(Cc2ccco2)C(=O)COc2cc(C)c(Cl)c(C)c2)cc1 -3.34%
O=C(NCCc1ccccc1)c1cc(S(=O)(=O)N2CCCCC2)c[nH]1 -8.21%
CCOC(=O)c1cnc2c(ccc3ccccc32)c1Nc1cccc(OC)c1 8.49%
Cc1ccc(NC(=O)/C=C/c2ccc(C)o2)c(C)c1 -0.524%
Cc1cccc(N2CCN(C(=O)c3cc4c(=O)oc5ccccc5c4s3)CC2)c1C -4.92%
Cc1cc(C(F)F)n2nc(C(=O)Nc3c(C)cccc3C)nc2n1 4.43%
Oc1c(C(c2ccccc2Cl)N2CCCC2)sc2nc(-c3ccco3)nn12 (stereo not given) -2.02%
CCOc1ccc(N(CC(=O)NCc2ccccc2Cl)S(=O)(=O)c2c(C)[nH]c(=O)[nH]c2=O)cc1 0.255%
CC(=O)Nc1ccc(NC(=O)CSc2nc3ccccc3nc2N2CCOCC2)cc1 -9.14%
COc1ccc(S(=O)(=O)N2CCC(Oc3ccc(-n4cnnn4)cc3)CC2)cc1OC -2.33%
CCOc1ccc(C(=O)c2cn(Cc3ccccc3OC)c3ccc(F)cc3c2=O)cc1 7.85%
COc1ccc(-n2c(CC3C(=O)N(C)c4ccc(C)cc43)nc3ccccc3c2=O)cc1 (stereo not given) -5.33%
CCc1ccc(NC(=O)CN(c2ccc(OC)cc2)S(=O)(=O)c2c(C)[nH]c(=O)[nH]c2=O)cc1 1.53%
COc1ccc(CCNc2ncnc3c2cnn3-c2ccc(C)cc2)cc1 13.4%
CN1C(=O)c2ccccc2Sc2ccc(NC(=O)COc3ccc(F)cc3)cc21 -4.44%
Cc1ccccc1C(=O)Nc1nnc(S(=O)(=O)N2c3ccccc3CC2C)s1 (stereo not given) -0.891%
COc1ccc(C2C(=O)N(C3CCCCCC3)CC(=O)N2Cc2ccc(C)cc2)cc1OC (stereo not given) 9.35%
Cc1nn(-c2ccccc2)c2nc(C3CC3)cc(C(=O)Nc3ccccc3F)c12 -8.32%
COc1ccc(-c2noc(CNC(=O)c3ccco3)n2)cc1 4.47%
O=C(NCc1ccco1)c1ccc2c(c1)N(Cc1cccc(Cl)c1)C(=O)c1ccccc1S2(=O)=O -0.898%
Cc1ccc(CNC(=O)CSc2cc(C)[nH]c(=O)n2)cc1 0.108%
CC1CCN(C(=O)CSc2nc(-c3ccccc3)no2)CC1 -5.76%
COc1cc(C(=O)N2CCC(c3nc4ccccc4o3)CC2)cc(OC)c1OC 0.493%
Cc1c(NS(=O)(=O)c2ccccc2)cc(C(C)C)c(O)c1S(=O)(=O)c1ccc(Cl)cc1 7.12%
COc1ccc(C(c2c(O)cc(C)n(Cc3ccco3)c2=O)N2CCCCC2)cc1OC (stereo not given) -7.52%
COc1cc(Cl)c(C)cc1NC(=O)c1ccc2c(Cl)c3c(nc2c1)CCC3 1.73%
CCOc1cccc(CC(=O)N2CCc3c([nH]c4ccccc34)C2c2ccc(Cl)cc2)c1OCC (stereo not given) -5.73%
CCOc1ccccc1CNC(=O)c1cnc2sc(N3CCCCCC3)nn2c1=O -2.24%
CCOc1ccccc1NC(=O)c1c(NC(=O)c2ccccc2)sc2c1CCCC2 1.81%
CCc1ccc(Oc2c(C(F)(F)F)oc3c(CN4CCN(C)CC4)c(O)ccc3c2=O)cc1 -11.7%
CCc1ccc(S(=O)(=O)NCCc2csc3nc(-c4ccccc4)nn23)s1 -3.55%
CC(C)(C)c1ccc(-c2nc3cc(NC(=O)c4cccc(Br)c4)ccc3o2)cc1 7.12%
O=C(NCCc1csc2nc(-c3ccc(F)cc3)nn12)c1cccc(C(F)(F)F)c1 -12.3%
COc1cccc(CNC(=O)Cn2ncc3c4ccccc4n(Cc4ccccc4)c3c2=O)c1 -6.02%
COc1ccc(-n2ccn(CC(=O)NCCc3ccccc3)c(=O)c2=O)cc1OC -0.757%
COc1cccc(C(=O)NCc2nc(-c3ccccc3)no2)c1OC -9.33%
Cn1c(=O)c2c(ncn2CC(=O)Nc2cccc(C(F)(F)F)c2)n(C)c1=O -14.8%
Cc1cccc(NC(=O)CCc2c(C)nc3nc(CNC(=O)c4cccc(F)c4)nn3c2C)c1 -1.02%
COc1ccc(Cn2c(SCc3ccc(C(=O)NC4CCCC4)cc3)nc3cccnc32)cc1 -0.265%
COc1ccc(-c2noc(CSc3nnc(-c4ccncc4)n3-c3ccc(C)cc3)n2)cc1OC -11.9%
O=C(Cn1c(=O)n(Cc2ccc3c(c2)OCO3)c(=O)c2oc3ccccc3c21)Nc1ccc(F)cc1 -2.89%
CCn1cc(CNC(=O)c2cc(-c3ccc(C)c(C)c3)nc3ccccc23)c(C)n1 -21.4%
CC1CCCCN1C(=O)Cn1c(SCC(=O)N(C)c2ccccc2)nc2ccccc21 (stereo not given) 0%
Cc1ccc(NC(=O)c2ccc(=O)n(CC(=O)Nc3cccc(C)c3)n2)cc1 -3.31%
CCOc1ccccc1CNS(=O)(=O)c1ccc(-c2coc(C)n2)cc1 -6.37%
Cc1cccc(C(c2sc3nc(-c4ccco4)nn3c2O)N2CCN(c3ccccc3)CC2)c1 (stereo not given) 0.0759%
Cc1ccc(NC(=O)c2ccc(NC(=O)N3CCSc4nc(C)cc(C)c43)cc2)c(Cl)c1 -2.88%
O=C(Cn1nc2c(cc1=O)CCCC2)Nc1ccccc1C(F)(F)F -7.78%
COC(=O)c1ccccc1NC(=O)c1cc2nc(-c3ccc(OC)cc3)cc(C(F)(F)F)n2n1 4.46%
Cc1ccc(C)c(NC(=O)c2ccc3nc(CCc4ccccc4)oc3c2)c1 -11%
O=C(CSc1n[nH]c(-c2ccccc2Cl)n1)N1CCN(c2ccccc2)CC1 -14.5%
CCOC(=O)CNS(=O)(=O)c1cc(-c2nnc(Nc3cccc(O)c3)c3ccccc23)ccc1C -8.54%
Cc1cc(NC(=O)c2cccs2)cc(-c2nc3cc(Cl)ccc3o2)c1O 7%
CCn1cc2nc(SCC(=O)Nc3ccc(C)cc3C)n(Cc3ccc(C)cc3)c(=O)c2n1 -4.42%
